# Laboratory results taken from the supplement of paper PMC8728848.
# This is one part of the list.
# B1: Gal 3C (Homo sapiens), P17931 (protein)
# chain: YGAPAGPLIVPYNLPLPGGVVPRMLITILGTVKPNANRIALDFQRGNDVAFHFNPRFNENNRRVIVCNTKLDNNWGREERQSVFPFESGKPFKIQVLVEPDHFKVAVNDAHLLQYNHRVKKLNEISKLGISGDIDLTSASYTMI
# Experiments:
# Assay in all cases: glycan array binding signal (z-score within array); higher = stronger binding
# Conditions in all cases: glycan notation: IUPAC condensed, linker removed
# [1] = target: GlcNAc(b1-3)Gal(b1-4)GlcNAc(b1-3)Gal(b1-4)GlcNAc(b1-3)Gal(b1-4)GlcNAc(b1-3)Gal(b1-4)GlcNAc(b1-2)[GlcNAc(b1-3)Gal(b1-4)GlcNAc(b1-3)Gal(b1-4)GlcNAc(b1-3)Gal(b1-4)GlcNAc(b1-3)Gal(b1-4)GlcNAc(b1-6)]Man(a1-6)[GlcNAc(b1-3)Gal(b1-4)GlcNAc(b1-3)Gal(b1-4)GlcNAc(b1-3)Gal(b1-4)GlcNAc(b1-3)Gal(b1-4)GlcNAc(b1-2)Man(a1-3)]Man(b1-4)GlcNAc(b1-4)[Fuc(a1-6)]GlcNAc
# Procedure, shortened: (§1)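 The binding signal is a Z-score computed within each array and averaged over linkers. Arrays of the same protein sequence at different concentrations or buffers were also averaged together. Data originate from 3228 arrays in the Consortium for Functional Glycomics database, kept only where the protein sequence was available.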
# [2] = target: GlcNAc(b1-3)Gal(b1-4)GlcNAc(b1-3)Gal(b1-4)GlcNAc(b1-3)GalNAc
# Procedure, shortened: as §1
# [3] = target: GlcNAc(b1-3)Gal(b1-4)GlcNAc(b1-3)GalNAc
# Procedure, shortened: as §1
# [4] = target: GlcNAc(b1-3)Gal(b1-4)GlcNAc(b1-3)[GlcNAc(b1-3)Gal(b1-4)GlcNAc(b1-3)]GalNAc
# Procedure, shortened: as §1
# [5] = target: GlcNAc(b1-3)Gal(b1-4)GlcNAc(b1-6)[Gal(b1-3)]GalNAc
# Procedure, shortened: as §1
# [6] = target: GlcNAc(b1-3)Gal(b1-4)GlcNAc(b1-6)[GlcNAc(b1-3)Gal(b1-3)]GalNAc
# Procedure, shortened: as §1
# [7] = target: GlcNAc(b1-3)Gal(b1-4)GlcNAc(b1-6)[GlcNAc(b1-3)]Gal(b1-4)GlcNAc
# Procedure, shortened: as §1
# GlcNAc(b1-3)GalNAc = target: GlcNAc(b1-3)GalNAc
# Procedure, shortened: as §1
# GlcNAc(b1-3)Man = target: GlcNAc(b1-3)Man
# Procedure, shortened: as §1
# [8] = target: GlcNAc(b1-3)[GlcNAc(b1-4)][GlcNAc(b1-6)]GlcNAc
# Procedure, shortened: as §1
# [9] = target: GlcNAc(b1-3)[GlcNAc(b1-6)]Gal(b1-4)GlcNAc
# Procedure, shortened: as §1
# [10] = target: GlcNAc(b1-3)[GlcNAc(b1-6)]GalNAc
# Procedure, shortened: as §1
# [11] = target: GlcNAc(b1-4)Gal(b1-4)GlcNAc
# Procedure, shortened: as §1
# GlcNAc(b1-4)GlcNAc = target: GlcNAc(b1-4)GlcNAc
# Procedure, shortened: as §1
# [12] = target: GlcNAc(b1-4)GlcNAc(b1-4)GlcNAc
# Procedure, shortened: as §1
# [13] = target: GlcNAc(b1-4)GlcNAc(b1-4)GlcNAc(b1-4)GlcNAc(b1-4)GlcNAc
# Procedure, shortened: as §1
# [14] = target: GlcNAc(b1-4)GlcNAc(b1-4)GlcNAc(b1-4)GlcNAc(b1-4)GlcNAc(b1-4)GlcNAc
# Procedure, shortened: as §1
# [15] = target: GlcNAc(b1-4)[GlcNAc(b1-6)]GalNAc
# Procedure, shortened: as §1
# [16] = target: GlcNAc(b1-6)Gal(b1-4)GlcNAc
# Procedure, shortened: as §1
# GlcNAc(b1-6)GalNAc = target: GlcNAc(b1-6)GalNAc
# Procedure, shortened: as §1
# [17] = target: GlcNAc6S(b1-3)Gal(b1-4)GlcNAc
# Procedure, shortened: as §1
# Kdn(a2-3)Gal(b1-3)GalNAc = target: Kdn(a2-3)Gal(b1-3)GalNAc
# Procedure, shortened: as §1
# Kdn(a2-3)Gal(b1-3)GlcNAc = target: Kdn(a2-3)Gal(b1-3)GlcNAc
# Procedure, shortened: as §1
# Kdn(a2-3)Gal(b1-4)Glc = target: Kdn(a2-3)Gal(b1-4)Glc
# Procedure, shortened: as §1
# Kdn(a2-3)Gal(b1-4)GlcNAc = target: Kdn(a2-3)Gal(b1-4)GlcNAc
# Procedure, shortened: as §1
# [18] = target: Kdn(a2-3)Gal(b1-4)[Fuc(a1-3)]GlcNAc
# Procedure, shortened: as §1
# Kdn(a2-6)Gal(b1-4)GlcNAc = target: Kdn(a2-6)Gal(b1-4)GlcNAc
# Procedure, shortened: as §1
# [19] = target: Man(a1-2)Man(a1-2)Man(a1-3)Man
# Procedure, shortened: as §1
# [20] = target: Man(a1-2)Man(a1-2)Man(a1-6)[Man(a1-3)]Man
# Procedure, shortened: as §1
# Man(a1-2)Man(a1-3)Man = target: Man(a1-2)Man(a1-3)Man
# Procedure, shortened: as §1
# [21] = target: Man(a1-2)Man(a1-3)[Man(a1-2)Man(a1-6)]Man
# Procedure, shortened: as §1
# [22] = target: Man(a1-2)Man(a1-3)[Man(a1-2)Man(a1-6)]Man(a1-6)[Man(a1-2)Man(a1-2)Man(a1-3)]Man
# Procedure, shortened: as §1
# [23] = target: Man(a1-2)Man(a1-3)[Man(a1-2)Man(a1-6)]Man(a1-6)[Man(a1-2)Man(a1-2)Man(a1-3)]Man(b1-4)GlcNAc(b1-4)GlcNAc
# Procedure, shortened: as §1
# [24] = target: Man(a1-2)Man(a1-3)[Man(a1-6)]Man(a1-6)[Man(a1-2)Man(a1-3)]Man(b1-4)GlcNAc(b1-4)GlcNAc
# Procedure, shortened: as §1
# [25] = target: Man(a1-2)Man(a1-6)[Man(a1-3)]Man(a1-6)[Man(a1-2)Man(a1-2)Man(a1-3)]Man
# Procedure, shortened: as §1
# [26] = target: Man(a1-2)Man(a1-6)[Man(a1-3)]Man(a1-6)[Man(a1-2)Man(a1-2)Man(a1-3)]Man(b1-4)GlcNAc(b1-4)GlcNAc
# Procedure, shortened: as §1
# Man(a1-3)[Man(a1-6)]Man = target: Man(a1-3)[Man(a1-6)]Man
# Procedure, shortened: as §1
# [27] = target: Man(a1-3)[Man(a1-6)]Man(a1-6)[Man(a1-2)Man(a1-3)]Man(b1-4)GlcNAc(b1-4)GlcNAc
# Procedure, shortened: as §1
# [28] = target: Man(a1-3)[Man(a1-6)]Man(a1-6)[Man(a1-3)]Man
# Procedure, shortened: as §1
# [29] = target: Man(a1-3)[Man(a1-6)]Man(a1-6)[Man(a1-3)]Man(b1-4)GlcNAc(b1-4)GlcNAc
# Procedure, shortened: as §1
# [30] = target: Man(a1-3)[Man(a1-6)]Man(b1-4)GlcNAc(b1-4)GlcNAc
# Procedure, shortened: as §1
# [31] = target: Man(a1-3)[Man(a1-6)]Man(b1-4)GlcNAc(b1-4)[Fuc(a1-6)]GlcNAc
# Procedure, shortened: as §1
# Man(a1-6)Man = target: Man(a1-6)Man
# Procedure, shortened: as §1
# Man(b1-4)GlcNAc = target: Man(b1-4)GlcNAc
# Procedure, shortened: as §1
# MurNAc(b1-4)GlcNAc = target: MurNAc(b1-4)GlcNAc
# Procedure, shortened: as §1
binder,measurement,setting,value
B1,glycan array binding signal (z-score),[1],3.79
same,glycan array binding signal (z-score),[2],1.38
same,glycan array binding signal (z-score),[3],-0.286
same,glycan array binding signal (z-score),[4],-0.203
same,glycan array binding signal (z-score),[5],-0.281
same,glycan array binding signal (z-score),[6],-0.317
same,glycan array binding signal (z-score),[7],-0.291
same,glycan array binding signal (z-score),GlcNAc(b1-3)GalNAc,-0.287
same,glycan array binding signal (z-score),GlcNAc(b1-3)Man,-0.287
same,glycan array binding signal (z-score),[8],-0.329
same,glycan array binding signal (z-score),[9],-0.305
same,glycan array binding signal (z-score),[10],-0.331
same,glycan array binding signal (z-score),[11],-0.34
same,glycan array binding signal (z-score),GlcNAc(b1-4)GlcNAc,-0.336
same,glycan array binding signal (z-score),[12],-0.337
same,glycan array binding signal (z-score),[13],-0.351
same,glycan array binding signal (z-score),[14],-0.231
same,glycan array binding signal (z-score),[15],-0.294
same,glycan array binding signal (z-score),[16],-0.297
same,glycan array binding signal (z-score),GlcNAc(b1-6)GalNAc,-0.322
same,glycan array binding signal (z-score),[17],-0.289
same,glycan array binding signal (z-score),Kdn(a2-3)Gal(b1-3)GalNAc,-0.132
same,glycan array binding signal (z-score),Kdn(a2-3)Gal(b1-3)GlcNAc,-0.291
same,glycan array binding signal (z-score),Kdn(a2-3)Gal(b1-4)Glc,-0.237
same,glycan array binding signal (z-score),Kdn(a2-3)Gal(b1-4)GlcNAc,-0.297
same,glycan array binding signal (z-score),[18],-0.278
same,glycan array binding signal (z-score),Kdn(a2-6)Gal(b1-4)GlcNAc,-0.295
same,glycan array binding signal (z-score),[19],-0.309
same,glycan array binding signal (z-score),[20],-0.285
same,glycan array binding signal (z-score),Man(a1-2)Man(a1-3)Man,-0.271
same,glycan array binding signal (z-score),[21],-0.31
same,glycan array binding signal (z-score),[22],-0.342
same,glycan array binding signal (z-score),[23],0.202
same,glycan array binding signal (z-score),[24],-0.298
same,glycan array binding signal (z-score),[25],-0.235
same,glycan array binding signal (z-score),[26],-0.266
same,glycan array binding signal (z-score),Man(a1-3)[Man(a1-6)]Man,-0.256
same,glycan array binding signal (z-score),[27],0.776
same,glycan array binding signal (z-score),[28],-0.328
same,glycan array binding signal (z-score),[29],-0.293
same,glycan array binding signal (z-score),[30],-0.065
same,glycan array binding signal (z-score),[31],-0.287
same,glycan array binding signal (z-score),Man(a1-6)Man,-0.243
same,glycan array binding signal (z-score),Man(b1-4)GlcNAc,-0.133
same,glycan array binding signal (z-score),MurNAc(b1-4)GlcNAc,-0.322
